Reference: PubChem BioAssay AID179 (DTP/NCI, 2004)
For part of its entries the source gives two or more results. They are shown here; other results are not. There may be further records. Values given together are repeated measurements (runs, samples, wells, individuals or studies). Brackets tell where a record comes from. The letters are not those of the source and start again with each entry.

test system: CEM cells HIV-1 protection, formazan growth assay; assay: NCI AIDS Antiviral Assay; conditions: measured here: growth of uninfected CEM cells
Procedure, shortened: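 Protection of CEM cells against HIV-1 measured as cell growth via soluble formazan read-out, with five concentrations tested on both infected and uninfected cells; failure to protect may reflect toxicity.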

Row | Structure (SMILES) | IC50
1 | CN(C)c1ccc(/C=C(\C#N)c2ccccc2)cc1 | 468 nM, 447 nM, 1.7 µM, 708 nM [separate samples]
2 | O=C(CCCN1CCC(O)(c2ccc(Cl)cc2)CC1)c1ccc(F)cc1 | 46.8 µM [sample A] and 3.02 µM [sample B]
3 | COC(=O)C1C(O)C(C)C(O)C(C)C=C(C)C2=C3C(=C(C)C(=O)c4c(O)c(c(C)c(OC(C)=O)c43)NC(=O)C(C)=C/C=C\C(C)C(O)C(C)C1O)OCO2 (stereo not drawn) | 3.98 µM [sample A] and 67.6 µM [sample B]
